The campaign covered roughly 310,000 compounds. About 14,000 (4.5%) showed an effect of 50% or more. Effects have a minus sign here. Some of the results follow.
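Note: peak tail current of the secondary pulse compared with the same well before compound.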

This test deals with human ether-à-go-go-related gene (hERG) potassium channel (human, UniProt Q12809). As to the kind of experiment: primary screen, population patch clamp on CHO cells stably expressing hERG.
Chain of human ether-à-go-go-related gene (hERG) potassium channel (Q12809 whole entry, looked up): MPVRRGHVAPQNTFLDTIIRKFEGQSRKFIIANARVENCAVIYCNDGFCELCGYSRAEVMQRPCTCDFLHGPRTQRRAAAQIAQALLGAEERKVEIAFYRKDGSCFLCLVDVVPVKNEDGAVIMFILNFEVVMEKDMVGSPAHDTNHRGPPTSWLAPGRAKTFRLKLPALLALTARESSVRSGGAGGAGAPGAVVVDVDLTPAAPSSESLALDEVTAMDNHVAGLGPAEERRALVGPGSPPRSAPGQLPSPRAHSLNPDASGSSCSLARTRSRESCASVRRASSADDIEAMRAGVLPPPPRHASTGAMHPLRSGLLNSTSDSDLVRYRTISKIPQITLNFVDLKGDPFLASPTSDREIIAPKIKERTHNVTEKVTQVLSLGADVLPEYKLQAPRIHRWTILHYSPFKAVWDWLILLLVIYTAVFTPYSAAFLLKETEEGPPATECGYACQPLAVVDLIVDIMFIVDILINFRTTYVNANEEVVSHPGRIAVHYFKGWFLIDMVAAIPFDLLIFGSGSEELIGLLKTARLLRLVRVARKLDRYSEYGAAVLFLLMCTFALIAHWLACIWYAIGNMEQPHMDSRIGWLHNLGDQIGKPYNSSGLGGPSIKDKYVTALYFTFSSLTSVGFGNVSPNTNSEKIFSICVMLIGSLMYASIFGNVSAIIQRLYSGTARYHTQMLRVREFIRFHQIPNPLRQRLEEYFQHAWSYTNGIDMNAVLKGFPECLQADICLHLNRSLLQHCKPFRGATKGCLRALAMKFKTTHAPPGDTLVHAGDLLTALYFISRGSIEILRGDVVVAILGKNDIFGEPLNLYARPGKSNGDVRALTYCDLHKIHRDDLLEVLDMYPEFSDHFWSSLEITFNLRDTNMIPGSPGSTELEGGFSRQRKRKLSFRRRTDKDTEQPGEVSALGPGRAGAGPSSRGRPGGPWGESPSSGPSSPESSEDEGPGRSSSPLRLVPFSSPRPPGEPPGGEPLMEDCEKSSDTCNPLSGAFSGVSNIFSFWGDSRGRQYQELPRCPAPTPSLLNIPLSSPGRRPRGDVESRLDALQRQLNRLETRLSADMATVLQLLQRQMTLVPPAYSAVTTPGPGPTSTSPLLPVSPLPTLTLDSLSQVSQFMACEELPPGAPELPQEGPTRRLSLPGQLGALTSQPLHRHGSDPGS
Turning to `CCOC(=O)C(NC(=O)Nc1ccc(O)cc1)(c1ccccc1)C(F)(F)F` (stereo not shown), the “hERG current change (%, negative = inhibition) at 10uM” value stood at 9.14%.
`CCOC(=O)c1nn(-c2ccc(Cl)cc2)c2nc(Nc3ccccc3)cc(=O)n12`: the “hERG current change (%, negative = inhibition) at 10uM” value is 15.2%.
As for `O=C(Cn1ccc(=O)[nH]c1=O)NCCO`, the “hERG current change (%, negative = inhibition) at 10uM” value is given as 0.719%.
As for `Cc1nc(Nc2nc(-c3ccccc3)cc(=O)[nH]2)nc2ccccc12`, the “hERG current change (%, negative = inhibition) at 10uM” value was -3.73%.
As to `COc1ccc(/C=C/C(=O)Oc2ccc(C=O)cc2OC)cc1`, the “hERG current change (%, negative = inhibition) at 10uM” value is reported as 1.92%.
Turning to `Nc1c(S(=O)(=O)c2ccccc2)c2nc3ccccc3nc2n1CCN1CCOCC1`, the “hERG current change (%, negative = inhibition) at 10uM” value is listed as -38.2%.
Take `COc1ccc(/C=C/C(=O)NCCc2c[nH]c3ccccc23)cc1OC`: the “hERG current change (%, negative = inhibition) at 10uM” value turned out to be 3.5%.
As for `CN(C)CCN(C(=O)c1ccc2c(c1)OCCO2)c1nc2cc3c(cc2s1)OCO3.Cl`, the “hERG current change (%, negative = inhibition) at 10uM” value is -41.9%.
As to `O=C(c1cn(-c2ccccc2)nc1-c1ccccc1)N1CCN(c2ccccn2)CC1`, the “hERG current change (%, negative = inhibition) at 10uM” value is listed as -13.6%.
In the case of `COc1ccc(C(=O)NCCCNC(=O)c2cccnc2)cc1Br`, the “hERG current change (%, negative = inhibition) at 10uM” value came out at 3.11%.
On to `O=C(CN1CCCCCCC1)N/N=C/c1ccc([N+](=O)[O-])o1`, for which the “hERG current change (%, negative = inhibition) at 10uM” value is recorded as -52.1%.
Regarding `CCN(c1ccc(NC(=O)COC(=O)c2ccc([N+](=O)[O-])o2)cc1)C(C)C`, the “hERG current change (%, negative = inhibition) at 10uM” value worked out at 17.2%.
With `Cc1cccc(NC(=O)CSCC(=O)Nc2sccc2C#N)c1` the figure was -32.2%; with `O=S1(=O)NC(CC2=CCCCC2)C2CCCCC2O1` (stereo not shown), 8.16%.
With `CCC(C)n1c(=S)[nH]c2ccccc2c1=O` (stereo not shown) the figure was -0.621%; with `CSc1nnc2c(n1)OC(c1ccsc1)N(C(C)=O)c1ccccc1-2` (stereo not shown), -30.2%.
With `COc1ccc(-c2cc(C(=O)N3CCCCC3)c3ccccc3n2)cc1OC` the figure was -7.8%; with `CSC1=NCCN1C(=O)Cc1cccc2ccccc12`, 3.38%.
In the case of `O=C(Nc1cc([N+](=O)[O-])ccc1O)NC1CCS(=O)(=O)C1` (stereo not shown), the “hERG current change (%, negative = inhibition) at 10uM” value came to 16.8%.
As to `CC(Sc1nncs1)C(=O)NC1CCCCC1C` (stereo not shown), the “hERG current change (%, negative = inhibition) at 10uM” value came out at 2.1%.
As to `O=C(NNc1cccc(Cl)n1)Nc1ccc(Cl)cc1`, the “hERG current change (%, negative = inhibition) at 10uM” value is recorded as 8.43%.
With `Cn1ccnc1C(=O)c1ccc(Cl)c(S(=O)(=O)N2CCOCC2)c1` the figure was 2.84%; with `COc1ccc(Cl)cc1NC(=O)COc1ccc(S(=O)(=O)N2CCOCC2)cc1C`, 10.8%.
Consider `CC(C)NC(=O)c1ccc2c(=O)n(CC3CCCO3)c(=S)[nH]c2c1` (stereo not shown), for which the “hERG current change (%, negative = inhibition) at 10uM” value was -1.14%.
In the case of `Cc1ccccc1-n1c(SCC(=O)N/N=C/c2sccc2C)nc2ccccc2c1=O`, the “hERG current change (%, negative = inhibition) at 10uM” value was -0.988%.
